Test results as given in article PMC4336329 (PLoS ONE, 2015).
Screen size: about 310,000 compounds; about 2,200 (0.71%) showed an effect of 50% or more. The effect is printed as a negative number. The list shows a part of the results.

What follows are molecules tested against human ether-à-go-go-related gene (hERG) potassium channel (human, UniProt Q12809) (assay: primary screen, population patch clamp on CHO cells stably expressing hERG).
Sequence of human ether-à-go-go-related gene (hERG) potassium channel (Q12809 whole entry, looked up): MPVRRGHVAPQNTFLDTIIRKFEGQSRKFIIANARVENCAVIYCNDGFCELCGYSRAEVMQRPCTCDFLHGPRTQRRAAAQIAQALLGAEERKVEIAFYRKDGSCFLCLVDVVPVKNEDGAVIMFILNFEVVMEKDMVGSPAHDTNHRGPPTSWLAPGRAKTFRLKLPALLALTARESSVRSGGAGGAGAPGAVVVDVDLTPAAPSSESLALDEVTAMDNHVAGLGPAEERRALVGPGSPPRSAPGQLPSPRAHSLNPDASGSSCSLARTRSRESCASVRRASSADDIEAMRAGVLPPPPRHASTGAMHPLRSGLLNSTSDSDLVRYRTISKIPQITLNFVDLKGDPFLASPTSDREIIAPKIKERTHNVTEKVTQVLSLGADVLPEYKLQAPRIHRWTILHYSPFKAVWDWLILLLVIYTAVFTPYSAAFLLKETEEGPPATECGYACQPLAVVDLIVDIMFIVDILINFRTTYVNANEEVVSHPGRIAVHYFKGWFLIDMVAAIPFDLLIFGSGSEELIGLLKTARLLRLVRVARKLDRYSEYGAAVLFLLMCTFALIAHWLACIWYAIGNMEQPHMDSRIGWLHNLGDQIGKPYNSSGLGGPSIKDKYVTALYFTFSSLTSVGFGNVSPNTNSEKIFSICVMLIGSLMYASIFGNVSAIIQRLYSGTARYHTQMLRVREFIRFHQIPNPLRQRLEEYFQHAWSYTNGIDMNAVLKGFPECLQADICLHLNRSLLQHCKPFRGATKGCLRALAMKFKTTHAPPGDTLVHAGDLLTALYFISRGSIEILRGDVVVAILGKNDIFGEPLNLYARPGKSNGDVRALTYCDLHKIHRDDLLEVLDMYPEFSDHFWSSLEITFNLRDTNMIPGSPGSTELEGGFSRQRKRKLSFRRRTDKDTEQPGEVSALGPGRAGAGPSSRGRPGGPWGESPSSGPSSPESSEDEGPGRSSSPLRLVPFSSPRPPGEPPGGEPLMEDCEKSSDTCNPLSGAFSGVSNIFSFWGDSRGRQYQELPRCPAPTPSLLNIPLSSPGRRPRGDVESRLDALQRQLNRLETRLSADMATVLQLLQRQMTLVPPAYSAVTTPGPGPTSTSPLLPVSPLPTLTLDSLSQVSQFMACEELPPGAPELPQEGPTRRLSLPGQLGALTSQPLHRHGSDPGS

Row | Compound | hERG current change (%, negative = inhibition) at 1uM [%]
1 | CCCCc1ccc2[nH]cc(CCN)c2c1.Cl | 5.08
2 | Fc1ccc(N2CCN(Cc3cnc(Oc4ccc(Br)cc4)s3)CC2)cc1 | 18.1
3 | Cc1cc(S(=O)(=O)N2CCC(NC(=O)C34CC5CC(CC(C5)C3)C4)CC2)ccc1-n1cnnn1 | -7.66
4 | COc1ccc(OC)c(NC(=O)CCN2C(=O)c3ccccc3C2=O)c1 | 17.2
5 | CN(C)c1ccc(-c2n(C)c3ccccc3[n+]2C)cc1.[Cl-] | 6.13
6 | CC(C)CCNC(=O)CCCCn1c(=O)[nH]c2ccsc2c1=O | 13.6
7 | O=S(=O)(/N=C(/Nc1ccccn1)c1ccccc1)c1ccccc1 | 11.2
8 | COC(=O)C1=C(C)N(C)C(=S)NC1c1ccc(OC)cc1OC (stereo not shown) | 4.08
9 | CC(Oc1cccc(Cl)c1)C(=O)N(C)CC(=O)Nc1ccc(N2CCOCC2)cc1 (stereo not shown) | 10.6
10 | Cc1ccc(Nc2nc3ccccc3n3nnnc23)cc1 | 12.1
11 | COc1ccc(NC(=O)c2cccc(NS(=O)(=O)c3ccccc3)c2)cc1 | 8.95
12 | Nc1c(N2CCCC2)c2ccccc2oc1=O | 6.58
13 | O=C1NC2(CCCCCC2)Cc2ccccc21 | -0.636
14 | Cn1ncc(Br)c1C(=O)NC1C2CC3CC(C2)CC1C3 (stereo not shown) | 11.1
15 | CC(=O)c1ccc(NC(=O)CN2CCN(S(=O)(=O)c3ccc4ccccc4c3)CC2)cc1 | 14.9
16 | CSc1ccccc1NC(=S)Nc1ccccc1C(F)(F)F | 6.68
17 | COc1ccc2oc(C(=O)OCC(=O)Nc3ccc(C(=O)N(C)C)cc3)c(C)c2c1 | 7.12
18 | CCOc1ccc2nc(COC(=O)c3cccs3)c(C(=O)c3ccccc3)[n+]([O-])c2c1 | 9.01
19 | CCN1C(=O)/C(=C\N2CCN(C)CC2)SC1=S | 14.2
20 | CC(C)C(=O)Nc1cccc(-c2cn3ccccc3n2)c1 | 9.5
21 | O=C(c1ccc2c(c1)[nH]c(=S)n1c3ccccc3nc21)N1CCN(c2cccc(Cl)c2)CC1 | 2.32
22 | COc1cc(Br)cc(CN2CCN(C/C=C/c3ccccc3)CC2)c1O | -25.6

Row | Compound | hERG current change (%, negative = inhibition) at 1uM [%]
23 | CCOC(=O)C1CCN(C(=O)CSc2nccc(C)n2)CC1 | -5.8
24 | Cc1ccc(CSCCNC(=O)c2ccc(C)cc2)cc1 | 11.9
25 | CCOc1cc(N2CCOCC2)c(OCC)cc1NC(=O)c1oc2ccccc2c1C | 11.9
26 | CC(=O)c1ccc(NC(=O)CSc2nccn2CCc2ccccc2)cc1 | 8.7
27 | CC(C)(C)c1ccc(/C=C2\Oc3cc(O)ccc3C2=O)cc1 | 10.9
28 | Cc1ccc(S(=O)(=O)Nc2ccccc2-c2ccccc2)cc1 | 16.1
29 | COC(=O)C(Cc1c[nH]c2ccccc12)NC(=O)c1cncc(Br)c1 (stereo not shown) | 19.4
30 | Cc1ccc(NC(=O)COc2ccc(/C=N/NC(=O)CSCc3ccccc3)cc2)cc1 | 1.25
31 | COc1ccc(C(=O)Nc2nnc(S(=O)(=O)Cc3ccccc3)s2)cc1 | 14.4
32 | O=C(NN1C(=O)C2C3c4ccccc4C(c4ccccc43)C2C1=O)C1CC1 (stereo not shown) | 13.1
33 | C=CCn1cnc2scc(-c3ccc(C)cc3)c2c1=O | 0.0053
34 | COc1ccc(CNC(=O)CCc2nnc3ccc(N4CCC5(CC4)OCCO5)nn23)cc1 | 0.274
35 | N#Cc1ccc(OCC(=O)OCC(=O)Nc2sccc2C(N)=O)cc1 | 0.865
36 | OC(COc1ccc(F)cc1)CN1CCN(CC(O)COc2ccc(F)cc2)CC1 (stereo not shown) | -51.1
37 | CCOc1ccc(C(=O)CCC(=O)NNC(=O)c2ccncc2)cc1 | 14
38 | CC(=O)c1cccc(NC(=O)C2CCN(S(C)(=O)=O)CC2)c1 | 10.7
39 | COc1cc(CN2CCN(Cc3ccco3)CC2)cc(OC)c1.O=C(O)C(=O)O | 9.72
40 | COc1ccccc1NC(=O)c1ccc(-n2cncn2)nc1 | 6.46
41 | NS(=O)(=O)c1ccc(NC(=O)COC(=O)/C(=C/c2cccs2)c2cccs2)cc1 | 9.44
42 | Cc1nn(C)c(C)c1NC(=O)CC12CC3CC(CC(C3)C1)C2 | 6.62
43 | COC(=O)C1C2C=CC3(CN(c4cccc(Cl)c4)C(=O)C13)O2 (stereo not shown) | 7.47
44 | CC(C)(C)NC(=O)CN(C(=O)c1snc(C(=O)NC2CCCCC2)c1N)c1ccccc1F | 17.9

Row | Compound | hERG current change (%, negative = inhibition) at 1uM [%]
45 | O=C(CN1CCOCC1)NCCc1ccccc1 | 14.7
46 | CC(=O)c1ccc(OCC(=O)c2cc(C)n(-c3ccc4c(c3)OCO4)c2C)cc1 | 6.25
47 | CC(=O)c1cccc(S(=O)(=O)Nc2ccc(N3CCOCC3)cc2)c1 | 13.7
48 | Cc1cc(S(=O)(=O)N2CCOCC2)ccc1OCC(=O)N1CCOCC1 | 15.2
49 | C/C(=N\Nc1cc(N2CCOCC2)ncn1)c1ccc(O)cc1 | 11.4
50 | O=C(NCc1ccccc1)C1CCCN(S(=O)(=O)c2cccs2)C1 (stereo not shown) | 6.69
51 | O=C1N/C(=C/c2ccco2)C(=O)N1Cc1ccccc1F | 7.02
52 | Cc1cc(C)nc(NS(=O)(=O)c2ccc(NC(=O)CSc3nc(-c4ccccc4)c(C#N)c(=O)[nH]3)cc2)n1 | 16.8
53 | COc1ccccc1N1CCN(C(=O)c2cn(Cc3ccccc3)nc2-c2cccnc2)CC1 | 9.19
54 | CCOC(=O)N1CCC(NC(=O)C2CCN(C(=O)N3CC(C)Oc4ccccc43)CC2)CC1 (stereo not shown) | 1.5
55 | COc1ccc(Cn2c(-c3ccccc3)nc3c(c(=O)c4ccccc4n3C)c2=O)cc1 | -7.94
56 | Cn1c(O)c(/C=C2\C=NN=C2c2ccccc2)sc1=S | 4.34
57 | Brc1ccccc1Cn1c(-c2cscn2)nc2ccccc21 | -0.319
58 | CCOC(=O)C1=NN(C(C)=O)C2(CC(=O)N(c3cc(C)cc(C)c3)C2=O)C1 (stereo not shown) | 9.06
59 | O=C(NCc1ccco1)C1CC(=O)N(c2ccc(Cl)cc2)C1 (stereo not shown) | 13.6
60 | Cc1ccc(-c2ccc(SCC(=O)N3CCc4ccccc43)nn2)cc1 | 1.58
61 | Cc1ccc(CNC(=O)CCCCn2c(=O)[nH]c3ccsc3c2=O)cc1 | 7.84
62 | O=C(c1cccs1)N1CCCC(c2nc3c(nnn3Cc3ccccc3Cl)c(=O)[nH]2)C1 (stereo not shown) | 2.03
63 | Cc1nc2ccc(NS(=O)(=O)c3c(C)c(C)cc(C)c3C)cc2s1 | 10.9
64 | COc1ccc(N2CCN(C(c3ccco3)c3sc4nc(C)nn4c3O)CC2)cc1 (stereo not shown) | 1.12
65 | Cl.O=C(O)c1ccc2nc(CO)[nH]c2c1 | 8.97
66 | N#CCOC(=O)C1CCN(S(=O)(=O)c2ccc3c(c2)OCCO3)CC1 | 12.4

Row | Compound | hERG current change (%, negative = inhibition) at 1uM [%]
67 | CC1CCCCN1C(=O)C(=O)c1cn(CC(=O)N2CCCC2)c2ccccc12 (stereo not shown) | 12.8
68 | COc1cc(/C=N/Nc2ccccc2C(F)(F)F)ccc1O | 6.57
69 | O=C(NC1CC1)c1ccc2snnc2c1 | 6.14
70 | O=C(COC(=O)c1ccncc1)c1ccc(Cl)c(Cl)c1 | 11
71 | COc1cc(C2NC(=O)NC(c3ccccc3)=C2C(C)=O)c(Cl)cc1OCC(=O)O (stereo not shown) | 9.1
72 | Cc1cc(C)cc(NC(=O)CSCc2cnn(-c3ccccc3)c2-n2cccc2)c1 | 13.4
73 | COc1ccc(-c2nnc(OC)c3ccccc23)cc1 | 11.7
74 | COC(=O)c1sccc1NC(=O)CN(C)NS(=O)(=O)c1ccc(Cl)cc1 | 11.3
75 | CCOC(=O)C1CCCN(C(=O)c2cc(S(=O)(=O)N3CCCCC3)ccc2Cl)C1 (stereo not shown) | 7.59
76 | Cc1nc2sc(C(c3cccc(F)c3)N3CC(C)OC(C)C3)c(O)n2n1 (stereo not shown) | 4.88
77 | CCOC(=O)C1=C(CN2CCN(C(=O)c3ccco3)CC2)NC(=O)NC1c1ccc(C)cc1 (stereo not shown) | 2.29
78 | CCS(=O)(=O)C1=NN2C(=N)/C(=C\c3ccc(OC(=O)c4ccco4)c(OC)c3)C(=O)N=C2S1 | 15.6
79 | Br.COc1ncnc2c1NC1=C(S2)C(=NCCC(=O)O)CC(C)(C)C1 | 13
80 | CC1=C(OC(=O)c2ccccc2)C(C)(C)C(c2ccc(Br)cc2)OC1=O (stereo not shown) | 13.7
81 | COc1cccc2sc(Nc3nc(-c4ccncc4)cs3)nc12 | 16.6
82 | COc1cccc(NC(=O)Nc2nnc(-c3ccccc3SCc3ccccc3)s2)c1 | 2.04
83 | CCOC(=O)N1CCN(c2nc(-c3cccc(OC)c3)cc(C(F)(F)F)n2)CC1 | 5.08
84 | Cc1ccc(NC(=S)Nc2cccc3ccccc23)cc1 | 9.76
85 | CN1C(=O)[C@H](Cc2ccc([N+](=O)[O-])cc2)NC1=S | -2.82
86 | Cc1[nH]c2ccccc2c1-c1nc2ccccc2[nH]1 | 3.62
87 | O=c1c2ccccc2[nH]c(=S)n1Cc1ccc2c(c1)OCO2 | 6.64
88 | CC(C)c1nc2c([nH]1)c(=O)n(C)c(=O)n2C | 10.6
